We go through 72 sequences from paper PMC10726135.

The other results are listed elsewhere or left out. At the low end of the ranking, values are background and their order means little. The protein was read in a cell extract, so binding may be indirect.

The target in this assay is T1, HNF4alpha2 (COS-7 nuclear extract) (UniProt P41235).
T1 sequence: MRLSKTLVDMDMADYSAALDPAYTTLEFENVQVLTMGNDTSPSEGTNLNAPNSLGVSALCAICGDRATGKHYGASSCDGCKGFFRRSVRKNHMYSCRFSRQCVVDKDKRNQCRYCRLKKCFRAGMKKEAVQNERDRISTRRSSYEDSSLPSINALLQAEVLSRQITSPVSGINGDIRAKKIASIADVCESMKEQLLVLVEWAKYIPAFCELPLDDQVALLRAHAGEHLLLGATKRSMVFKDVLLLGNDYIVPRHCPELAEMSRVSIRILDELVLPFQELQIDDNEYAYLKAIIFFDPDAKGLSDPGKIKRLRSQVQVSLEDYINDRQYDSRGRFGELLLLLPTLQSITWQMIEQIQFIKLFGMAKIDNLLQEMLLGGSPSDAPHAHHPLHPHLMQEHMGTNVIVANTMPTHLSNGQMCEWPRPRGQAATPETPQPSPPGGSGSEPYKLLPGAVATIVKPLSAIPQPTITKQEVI
The assay is described as follows: protein-binding microarray. The conditions noted are these: COS-7 nuclear extract on double-stranded Agilent 4x180k PBM; binding buffer, salt, pH and temperature not given; high values mean tight binding; double strand, one strand shown; sequences stand for … in …GCCTAGGGAGATTAGAGTATCGGTCGA
Regarding CCTCTAGATAAACCAAGCCTGCAGCACCTT, the binding signal (log2 normalized intensity) was -1.05.

Turning to GGAGAGGGAGAGTGAGTGAGTGTGTGTGTG, the binding signal (log2 normalized intensity) turned out to be 2.52.

Regarding TGAATAGGTCTTGGAATGTGACGGCAGGTC, the binding signal (log2 normalized intensity) is 1.28.

For the sequence AAGATAAGATGTACCATTCATGGACAGCCT, the binding signal (log2 normalized intensity) is -1.02.

Regarding GCACACTGGCAAATGTGAATGGACTCTGCC, the binding signal (log2 normalized intensity) worked out at 3.28.

As for AGATAATGCCAGAAAGGTCTAAAAGTAGCT, the binding signal (log2 normalized intensity) was -1.29.

On to TTGCACTGCTCAGGGTGGGGTCTCGCTGCT, for which the binding signal (log2 normalized intensity) was -0.755.

In the case of TGGCTTCCGTGCCTGCATGGGCTGTCACCT, the binding signal (log2 normalized intensity) is -1.18.

Take GAGAAACGCACTCGCCTCTCCTGTTCCGGT: the binding signal (log2 normalized intensity) is -0.892.

In the case of GTGGAAAGACAAGTTGAAGCCAGATTGTCA, the binding signal (log2 normalized intensity) is -1.02.

In the case of CGTCCGTGCACCCTTCCTCTGCAGCCGCCC, the binding signal (log2 normalized intensity) was -1.05.

In the case of CGATAATTACCTGGTCAGAAGAAACATGCG, the binding signal (log2 normalized intensity) was -0.0791.

For CTGATTTCAAAGTTCAGTTTGATTACTTGG, the binding signal (log2 normalized intensity) amounted to 2.12.

In the case of ATGCCAGTGGGAAAACAAACTTTCCTCTCT, the binding signal (log2 normalized intensity) is -1.02.

As to ACAGGCCTCCCCCCTTCTGTTTCCAGAAAT, the binding signal (log2 normalized intensity) was 3.71.

In the case of CCCAACCCTCTCCCACTCCCCTCCTCCAGA, the binding signal (log2 normalized intensity) came out at 5.01.

Consider TGCACCCCCTTCCCACCTGCTGTCCAACCT, for which the binding signal (log2 normalized intensity) was 4.48.

Consider GGGTGGTGAAATGGGGGAAGGGCTGGAGAC, for which the binding signal (log2 normalized intensity) was -1.18.

Take TTACTTGCTGGAGAAAGAGGGGAAGGATGA: the binding signal (log2 normalized intensity) is -1.06.

Take TAAGTGAAAGTACACAGTGCCTGCTTGCAG: the binding signal (log2 normalized intensity) was -1.12.

As for TAGAAAGTCAGTGAAGGAGCTGACTAGATT, the binding signal (log2 normalized intensity) is -1.11.

As for TAGAAAGGAGTACACACCATAAGAGGCTCT, the binding signal (log2 normalized intensity) was -1.12.

Take GAAGGTCGAGGCCAGGGATTAAAGAATTCG: the binding signal (log2 normalized intensity) is -1.21.

As for CTCTTTTACTGTACTTCTTTAGGACTGCTC, the binding signal (log2 normalized intensity) worked out at 1.58.

In the case of TACACCCCTCACTCCCTCCAGCTGTCTTGG, the binding signal (log2 normalized intensity) came to 3.14.

For the sequence TCAAAGGGCATTACTTGCTGGAGAAAGAGG, the binding signal (log2 normalized intensity) was -0.762.

On to ATCCCGTGGACTTTGCCTGCCCATCCCGTG, for which the binding signal (log2 normalized intensity) came to 3.13.

As for TATCTCTGTGGATAGCTCAGGGATTAACGA, the binding signal (log2 normalized intensity) is 0.373.

Consider GCACTGATAAGCGTATTTCAACCTTTGATC, for which the binding signal (log2 normalized intensity) worked out at 7.8.

On to ATGATAAGTTGGAATTTGGGTGATCCTGGT, for which the binding signal (log2 normalized intensity) stood at 1.69.

On to TGCTGCAATTTAAGCTTACTTCCTCTCCTA, for which the binding signal (log2 normalized intensity) was -1.17.

Take CTTTGGCCTTTTGTGAGATATGGACTGTAG: the binding signal (log2 normalized intensity) worked out at 2.72.

Turning to GACCTCACATTGTAGCTAAAATGTTAATGA, the binding signal (log2 normalized intensity) came to 0.663.

As to CTGCCACTTATTGTGTTATGTACTTAGTGT, the binding signal (log2 normalized intensity) was 2.59.

With GAAATGTAGTTCCGGAGAACACGGAGTCCT, the binding signal (log2 normalized intensity) is -0.635.

Consider TTCCATGTCCAAAGGTCTTCATGAGCAATA, for which the binding signal (log2 normalized intensity) worked out at 2.9.

As for CTGTGACACCCTGGTTGACACTCGAGGATC, the binding signal (log2 normalized intensity) was -0.57.

As for CTTGGATTTTCTCATCCCAGGGATAATGAT, the binding signal (log2 normalized intensity) was 0.183.

Take GCACAGCTTATCACTGGTGATGTGAACCTC: the binding signal (log2 normalized intensity) worked out at 2.27.

Take AACCACCAGATAGAGCTTTTGAGGGTGACC: the binding signal (log2 normalized intensity) was determined as 1.87.

With TCAAAGCCCAACCAGGATAGGGAGGGGTAA, the binding signal (log2 normalized intensity) was -1.01.

Regarding TTAGCCTTTGAACCCCACACCTCCCTTGCA, the binding signal (log2 normalized intensity) was 3.9.

Take CGGTTCCCAATAAGTTCCTCATTTTCATGT: the binding signal (log2 normalized intensity) was found to be 0.676.

For the sequence GCCTGAGCTATCTGTTTGAGGTTCACTGGG, the binding signal (log2 normalized intensity) was 1.55.

TTCCTTTTTTGGTTCCCCTTCCCCCAACAG: the binding signal (log2 normalized intensity) was determined as 4.87.

TGTGGGCAAATAGGATTAGGAAACCTGGTA: the binding signal (log2 normalized intensity) was -1.09.

As for GCCTTGCACACTCGCCTGGCTCCCCACGTG, the binding signal (log2 normalized intensity) was -1.13.

As to GAAGCTTAGAGAGAGAAATTGCTTAAGTGC, the binding signal (log2 normalized intensity) was -1.25.

On to ATGATTATGCCTCTGTGACCTATAATCAGA, for which the binding signal (log2 normalized intensity) was 2.56.

On to GGAAAGGGCACTGATAACCTGCATTTGAAA, for which the binding signal (log2 normalized intensity) is -1.23.

Regarding GCTTGTCCTTTTGACCACAGTTATCTCCCC, the binding signal (log2 normalized intensity) was determined as 2.78.

Consider TCTAGCATCCCTCTCTTGCTGGGCCCCCAG, for which the binding signal (log2 normalized intensity) was found to be 2.43.

Turning to ATTGCCTTTCTCTGTGTGTATGTGTGTGTA, the binding signal (log2 normalized intensity) came out at 3.27.

In the case of TGCATCGCAGTCGCCTGCAAGACAATACCT, the binding signal (log2 normalized intensity) was -1.16.

Consider ACTCCTGTGCTGGAATGCTTTTCTAGAACC, for which the binding signal (log2 normalized intensity) is 0.157.

Consider TCCAGAATTGTGTGGTTATCTGTTGGGGAA, for which the binding signal (log2 normalized intensity) stood at 1.95.

On to AGGAGGGAGGCAGGGAGACAACCTGGGTGT, for which the binding signal (log2 normalized intensity) was -1.15.

Turning to ATTTGTCTCTGCTGGGCAGAGGGACAACTG, the binding signal (log2 normalized intensity) amounted to 0.928.

For the sequence GATTTGACTGGAATGTCAAAGGGACAGCAC, the binding signal (log2 normalized intensity) turned out to be 0.572.

For the sequence CCCAGCTGAGATTCAGAATAGTTAAGTAAC, the binding signal (log2 normalized intensity) was -1.06.

On to TGATTTAATACGATATTAATGGTGACCCCT, for which the binding signal (log2 normalized intensity) was 5.54.

As to CTGGTGTGCTTTCTGTCCTCTCAAAGTCCA, the binding signal (log2 normalized intensity) was determined as 3.7.

GAGGTGGGCCCAGGGTTCTCTGTGACCTTT: the binding signal (log2 normalized intensity) is 6.79.

For GTCAGCTTCACTGATAGCGAGTTATCTGCA, the binding signal (log2 normalized intensity) was -0.993.

In the case of AACACTGACAGATTCCTGCTAACAGATAAA, the binding signal (log2 normalized intensity) was -0.969.

With GAAGGCCCCCAGGTAGCTGCCAATGCAAAT, the binding signal (log2 normalized intensity) worked out at 1.89.

Turning to TGGTGGGGAATGCTAGGACTCATTCTCCCC, the binding signal (log2 normalized intensity) is 0.442.

Consider GGTAAGGGTGGGGGTGGGGAGGATAGCAGC, for which the binding signal (log2 normalized intensity) is -0.961.

As for TGCCACATACCTTTAAACATTCTTCTCAGT, the binding signal (log2 normalized intensity) was 0.734.

As to CAAATAGCAGAAAATCCAGGTGCAGTGTGA, the binding signal (log2 normalized intensity) was found to be 1.06.

On to CCAGACAGAGAGGTCAGCAAATGTGGACAC, for which the binding signal (log2 normalized intensity) worked out at 0.904.

Take TTTGAACTGGGTCTTAATAAGATAATAAGT: the binding signal (log2 normalized intensity) turned out to be 1.44.
